Some of the results follow.
T1: UNK ZnF1-6 (called full-length) (human, UniProt Q9C0B0 30-357)
T1 sequence: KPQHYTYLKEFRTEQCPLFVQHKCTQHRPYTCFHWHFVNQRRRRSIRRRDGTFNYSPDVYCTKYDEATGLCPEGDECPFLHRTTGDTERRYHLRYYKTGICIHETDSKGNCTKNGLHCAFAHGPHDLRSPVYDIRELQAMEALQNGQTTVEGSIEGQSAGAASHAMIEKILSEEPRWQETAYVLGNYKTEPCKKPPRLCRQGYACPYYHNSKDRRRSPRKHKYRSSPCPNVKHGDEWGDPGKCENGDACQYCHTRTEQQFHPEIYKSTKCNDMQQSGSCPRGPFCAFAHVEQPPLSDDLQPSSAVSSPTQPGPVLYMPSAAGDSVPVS

B1: chr7:88197266:88197367:+|3pUTR|ENSG00000008277|unk|total|mutant (ssRNA)
RNA: GGGAGUUCUACAGUCCGACGAUCCAAAACAUGUGAUAUCCCUUUAACCUGUGCACAGUCUGGAGGCAGUUUUAUUGAGUGAGCCGUUGAGUGAGAGAACAAAAUGCCCAGCAAAACUUCUGGCCUCCACAGUUUGCUGAUGCACAACAGAGGAUUGAGCAUCA
B2: chr3:122768741:122768856:-|CDS|ENSG00000169087|unk|FALSE|unique (ssRNA)
RNA: GGGAGUUCUACAGUCCGACGAUCACAUGUAAUUACGUAGAAGCUACACUCGAAGAGUUUCUGACCUGGAACUGUGACCAGUCUAGUAUUUCUGGACCAUUUAGAGAUUAUGACCAUUCCAAGUUCUGGGCUUAUGCUGACUAUCAACAGAGGAUUGAGCAUCA
B3: chr17:75064992:75065093:+|3pUTR|ENSG00000180901|msi1|FALSE|unique (ssRNA)
RNA: GGGAGUUCUACAGUCCGACGAUCAGGCGCUUGUCCCUGUCUGCUUUCCUGGGGCAUGCCUGAUCAGCGUGGGCUGGAGCUCCUAGACCAACCCCAGCUUUCUCACCAGGUUCAGCAAGGAGGCCUGGGGGUCAGACACCAAUGCAACAGAGGAUUGAGCAUCA
B4: chr16:67175568:67175669:+|3pUTR|ENSG00000140939|msi1|total|mutant (ssRNA)
RNA: GGGAGUUCUACAGUCCGACGAUCUCCGAGCUCACAGCCUUGGGAAGUGAGACCCGAAGAGGGGAGCAGAAAGGGACCUUGAGCCGACAAAGGCCACACACAUCAUUGUCAUUACUGUUUUAAUUGUCUGGCUUCUCUCUGGACCAACAGAGGAUUGAGCAUCA
B5: ENSG00000070961:be:win_6251|3pUTR|ENSG00000070961|bound_else_gene|NA|bound_elsewhere_windowed (ssRNA)
RNA: GGGAGUUCUACAGUCCGACGAUCCAUCAUUGCCUUUUUUGUGGUUGUAAAUAGACUUACUUGCACUUUGAAGAUGAGUUACUCCUUGUCAUCUUACAAAUAUGUGAUAUGGUAAUUUUCAUAACAGAUGUCAGUUUUGAACCACAACAGAGGAUUGAGCAUCA
B6: chr2:151248206:151248307:-|3pUTR|ENSG00000184898|msi1|FALSE|unique (ssRNA)
RNA: GGGAGUUCUACAGUCCGACGAUCUUUUUUUAAAGCAAAGAUUAAAUUCCCAUGUAAAACCUUCCUCCCUAUACAAAAAAGAAUAGCAGCAUUUUUAUCUUCAAUGACAAAGAAUUGAGUCCAAGAAAAUACUGUAUAAACCUUCAACAGAGGAUUGAGCAUCA
B7: chr8:25429562:25429664:-|3pUTR|ENSG00000104756|unk|total|mutant (ssRNA)
RNA: GGGAGUUCUACAGUCCGACGAUCAGAAAAGCACUCAUUUAACCGAUGCCGGGAAACCCGAUAUUGCUGCCUUUUGAAUGGGGCCGGGGGGUUUACCUGGUUUUAUGACCAGGCACCGUAUCUAUUAUAUUUGCUUUUAAACCGCAACAGAGGAUUGAGCAUCA
B8: chr10:127452233:127452334:+|3pUTR|ENSG00000150760|msi1|FALSE|unique (ssRNA)
RNA: GGGAGUUCUACAGUCCGACGAUCGUAUAUAUGAUGGUUCUUAGAACUUGUUUUAAUUUUUGUGGUCCUUCCGUUUAUUAUAAUAGGCGUCCACCAAUGAUUAUCCAUAUGUGUUCUUAAUUUUUAACUGCUGGAAGUGUUAAACAACAGAGGAUUGAGCAUCA
B9: chrX:74588119:74588220:-|3pUTR|ENSG00000131263|msi1|FALSE|bound_elsewhere (ssRNA)
RNA: GGGAGUUCUACAGUCCGACGAUCUCCGAAAAUGCUGGGAUUACAGGCGUGAGCCACCAUGUCCAGCCAAAGUUGAGGUUUAUUAGUACUAUUAGAAACAAAAUUGAGCAAGUUAAGUUAAAAGUUUGCUGACUUUGUAUCAACCAACAGAGGAUUGAGCAUCA
B10: chr15:91915990:91916091:+|CDS|ENSG00000176463|msi1|total|mutant (ssRNA)
RNA: GGGAGUUCUACAGUCCGACGAUCGUCCUGACCACCCUGGAGCGCCGGUUCAACCUGCAGAGCGCUGACGUGGGUGUGAUCGCCCGCAGCUUCGAGAUCGGGAACCUGGCGCUCAUCCUCUUCGUGAGCUACUUCGGGGCACGCCAACAGAGGAUUGAGCAUCA
B11: chr13:20975083:20975184:-|CDS|ENSG00000150457|msi1|FALSE|unique (ssRNA)
RNA: GGGAGUUCUACAGUCCGACGAUCGCCAGCCCCCUACGUUCCCACCAUCAGCCACCCCAUGGACACCUCGAAUUUCGACCCCGUAGAUGAAGAAAGCCCUUGGAACGAUGCCAGCGAAGGUAGCACCAAGGCCUGGGACACACUCAACAGAGGAUUGAGCAUCA
B12: chr16:16142165:16142266:+|3pUTR|ENSG00000103222|msi1|total|mutant (ssRNA)
RNA: GGGAGUUCUACAGUCCGACGAUCAUUGAUGUGGGGUAAAUAUUAAGGAGAUGGCCUCAUGGGAAUUUGACCUUGACCCGAAACCGAGACUGAGAGUGAGCAACCAGCUGGAAGGUACUAUGCCAGUCCCCGCAGAAAAAUGUGCAACAGAGGAUUGAGCAUCA
B13: chr11:43405833:43405939:+|CDS|ENSG00000052841|unk|FALSE|unique (ssRNA)
RNA: GGGAGUUCUACAGUCCGACGAUCGGCCCAAACCCCUGACUGUUCCAUAACUGACUUCAGAAAAAGCCACACUCUGUCCUACUUAGUCAAAGAAUUAGAGGUUCGCAUGGAUCUGAAAGCCAAAAUGCCAGAUGACCAUGCACGCAACAGAGGAUUGAGCAUCA
B14: ENSG00000070961:be:win_3051|CDS|ENSG00000070961|bound_else_gene|NA|bound_elsewhere_windowed (ssRNA)
RNA: GGGAGUUCUACAGUCCGACGAUCUGUGGUACAGAUAAUAAUUGUGCAGUUUGGUGGAAAACCUUUCAGUUGUUCAGAACUUUCAAUAGAACAGUGGCUAUGGUCAAUAUUCCUAGGAAUGGGAACAUUACUCUGGGGCCAGCUCAACAGAGGAUUGAGCAUCA

Biological target: T1, UNK ZnF1-6 (called full-length)
Assay: nsRBNS (natural sequence RNA bind-n-seq); RBNS binding buffer (assumed for nsRBNS): 25 mM Tris pH 7.5, 150 mM KCl, 3 mM MgCl2, 0.01% Triton X-100, 500 ug/ml BSA, 20 U/ml SUPERase-In, 4 C; UNK is unkempt and MSI1 is Musashi-1; names of the RNAs are library labels; protein concentration not given here; high values mean tight binding

| Binder | binding signal |
| --- | --- |
| B1 | 0.634 enrichment R |
| B2 | 0.406 enrichment R |
| B3 | 0.765 enrichment R |
| B4 | 0.831 enrichment R |
| B5 | 0.405 enrichment R |
| B6 | 0.487 enrichment R |
| B7 | 0.998 enrichment R |
| B8 | 1.5 enrichment R |
| B9 | 0.995 enrichment R |
| B10 | 0.82 enrichment R |
| B11 | 1.17 enrichment R |
| B12 | 0.757 enrichment R |
| B13 | 1.07 enrichment R |
| B14 | 0.678 enrichment R |

— article PMC12136788
